Data as given in the RNAGym collection of RNA variant scans (doi:10.7554/elife.90254).
The source gives no read counts; variants with many changes may rest on few reads.

B1: OR4K15 (parent)
chain: GUUAACGGUCAUAGGCCAUGGAAACUAGGAGCACCAUUUCGCUGCCAGUGAAGAAAUGAACAAAGAAAAUCUGGGCCAGGCAGGCAUCAAAAGAAAUAGUCUUGCGCUCAACCAGAAAGUCUGUAAUCAUUUUAAGGGUA

Variants of: B1
Assay: self-cleavage, relative activity (ratio to wild type); higher = more cleavage; in vitro, sequencing; the parent is a self-cleaving ribozyme

Row | Variant | self-cleavage
1 | U103C A111G A114G | 0.01
2 | U2C A23G A36U A63U | 0.55
3 | U38C U100C A140G | 1.71
4 | A64G U72A U102A | 0.13
5 | A30G A90G U133C | 1.42
6 | A11G A69G A111G U124C | 0.01
7 | U100C U103C A110G A117G G123A | 0.1
8 | A55G U57C U108C | 0.02
9 | U2C G58U A126U | 0.62
10 | U9C A23C U87C | 1.25
11 | A11G A33G U120C | 0.36
12 | U9C A69G A94G | 0.91
13 | A22G A51G U87C | 1.28
14 | U9C U26A A52G | 1.41
15 | A18G A114G A129G U132A | 0.15
16 | A55G A59G A78G | 0.2
17 | C6U A67G U130C U132C | 0.91
18 | U9C A36G U37C A96G | 2.08
19 | A47G A96G U120A | 0.99
20 | G7A A23G A33U | 1.97
21 | A60G A64G U130C | 1.07
22 | A11G U26C U97C | 0.17
23 | A22G U43A U70C U87A U120C | 0.23
24 | A11U U38C A51G A55G U130C | 0.46

Row | Variant | self-cleavage
25 | U43C A68G U97C A98C | 0.73
26 | U2C A56G A67G A111G C128U | 0.03
27 | U19C U38A A69G A95G | 1.7
28 | G41A A52G A62G A91G A117G A129U | 0.65
29 | A11G A78G A86G | 0.2
30 | U38C U49C G104U | 0.02
31 | A33G U132C G137A | 0.32
32 | U9C A64G A94G A129U | 0.75
33 | A5U A24U U127C | 1.64
34 | A30G A91G A116G U124G | 0.34
35 | A11G A24G A59U | 0.86
36 | U57C A110U U122C | 0.64
37 | C71A U127C G137A | 0.4
38 | U2C U131C U133C | 1.26
39 | U12C A23G A116G | 1.32
40 | A68G A78U A92G U122G | 0.83
41 | C6U A116G U120C A126G A140U | 0.34
42 | G41U A47U A51U A54G U130C | 0.41
43 | A60U A78G A95U | 0.09
44 | U19C A64G A82G | 0.49
45 | A4G U72C A96G U131C | 0.15
46 | A5G A118G U132C | 0.71
47 | A5G U87C A89U U127C | 1.44
48 | U57A C71A U87C U97A U102C U130C G136U | 0.09

Row | Variant | self-cleavage
49 | A24G U37C A69G G115U | 0
50 | U102C A116G U122C | 0.42
51 | A22G U43C A69G U72C A96G | 0.28
52 | A18G C88U U130C | 1.98
53 | A11U A52G A69C | 1.41
54 | A55G A95G A135U | 1.83
55 | A67G U102A A114G | 0.39
56 | U26C A95G U108C | 0.01
57 | A30U A54G C128A | 0.89
58 | G15A U19C A51G A54G G123A G136A | 0.88
59 | U12C A66G U87C A96G | 1.41
60 | U49C A64U A92G | 1.11
61 | U39C A54G A98U | 1.24
62 | U39A A59G A82C A111U | 0.05
63 | A30G G115U U127C | 0.02
64 | G20A A36G A59G A62G A90G | 0.89
65 | A22G A47U A63G | 0.77
66 | U49C A62G G75A | 0.11
67 | U26C A90G U131C | 0.74
68 | U37C A66U A82U | 0.28
69 | A27G A54U A114G | 0.6
70 | A23G U57C U130C | 0.8
71 | U70A A92G A94G U131C | 0.81
72 | A92G A95G U130C | 0.7

Row | Variant | self-cleavage
73 | A63G U102C A125G | 0.64
74 | A18G A62C A95G A129U | 1.1
75 | A52U A55U A86G A92G | 1.26
76 | U87C A91G G138A | 0.85
77 | U3C G48A U108C | 0.02
78 | U2A C16A C61A | 1.57
79 | A69U A114G A126U | 0.77
80 | A22U A30G A59U A118G G123C A129G | 0.46
81 | C16U U37C A60G | 0.9
82 | A22G U49A A78G U100G | 0.25
83 | U2C A91G A94C U108C A111G | 0.03
84 | U9C A69G U97C | 1.1
85 | A47U A67G A114U | 0.08
86 | A5G U39A A52G G119A | 1.53
87 | A30U U43C U70G | 0.71
88 | U43C A47G A55G U130C | 0.5
89 | A54G A64G A68G U131C | 1.1
90 | A33G A55G A62G A66G A92G U124C U130C | 0.24
91 | A52G A82G A95G | 1.49
92 | G7U A24G U43G A47G A91U | 0.92
93 | U12C A24G U103A | 0.15
94 | A5G U39C G50U A52G U131C | 0.86
95 | A30U A91G A116G U124C | 0.31
96 | A11G A36G U43A | 1.48

Row | Variant | self-cleavage
97 | U39C A60G U133C | 0.83
98 | A67G A68G U72C | 0.16
99 | A54G A110G G115A G119A U127C | 0.02
100 | G14A A36U A56G | 0
101 | C6U G15U A63G A135G | 1.46
102 | C34U A59G A96G | 0.1
103 | A18G A52G A59G A67G G138A | 1.06
104 | U38C A86U U127A | 2.79
105 | U39C A63G U103C A110G | 0.21
106 | A56G U127C A140G | 0.31
107 | A89U A94G U102C A135G | 1.93
108 | A22U A96G A117G | 2.41
109 | U3C A22G A96G | 0.58
110 | U70C A95G U102A U108C | 0
111 | A82G U100C C109A A134U | 0.27
112 | A11G A22G U39C | 0.65
113 | U9C G14A A56C A60G C77G A78G A116G | 0.06
114 | U49C U72A A96G A125U | 0.27
115 | U39A A62G U103C U132C | 0.77
116 | A24C A62G A89G U102C | 1.73
117 | G8A U43C A64C A126C U132A | 1.06
118 | U12C U37C A86G A90G U124C U130G | 0.51
119 | A22G A62G A69G | 1.26
120 | U49A A114U U122A | 0

Row | Variant | self-cleavage
121 | U26A A27G U120A U131C G137A | 1.41
122 | U9C U37C G53A A60G U127C | 0.88
123 | U49C A82C A118C | 0.13
124 | U43C A56G A64G G93A | 1.45
125 | U9C A23G A30U U87C U103C | 0.22
126 | A63G U87A U100A U127A | 0.5
127 | U9A A56G U57C U102C A114U | 0.03
128 | U2A U39A A51G A60G U70C U102C | 0.95
129 | G14A A52U A111G | 0.02
130 | A36C U37A U131C | 1.95
131 | U2G A11U A22G U103C C109A | 0.12
132 | A67G A69G A117G | 1.17
133 | A62U A94G A116U U130C | 0.16
134 | U2C A23G G104A A111G | 0.09
135 | U3C U9C A95G C121A | 2.23
136 | C32U U70C A89G A95G | 1.64
137 | A18G U57C A94G | 1.84
138 | U9C U72C A114G A140G | 2.19
139 | A69G A82U U131G | 0.02
140 | U9C C113U A116G | 0.06
141 | U9C U38C A56G A62G | 1.24
142 | C35A U37C G115A | 0.09
143 | U19A A69U G136U | 1.9
144 | G14A A60G A117G | 1.39

Row | Variant | self-cleavage
145 | G14C C16U U26C A90U A118G U122A | 0.83
146 | U39C A78U U127C | 0.14
147 | A69G U100C U103C U130C | 1.39
148 | A56G A66G A67G A92G A111G | 0.05
149 | A30U A47G G119A A135C | 0.75
150 | U37C A89G A94G U132A | 0.67
151 | U19A A47U A62C | 0.79
152 | U19C A27G A51G G79A U120A U132A | 0.08
153 | A24G U37C A51U G84A A117G U131C | 1.45
154 | U9C U12C A56G A69G | 1.2
155 | U39C A56G A69G A82U | 0.37
156 | A23G A55C G73A A125G | 0
157 | U12C U57C U108C | 0.1
158 | A56G A68G A69U U102C G106C A126G A135G | 0
159 | G7C A18U U108C A129G | 0.03
160 | A60G G119A U130C U139C | 1.3
161 | A60U U102A A111G | 0.01
162 | U3A A94G U122C | 2
163 | U2C A125G A135G | 0.69
164 | U37C A69U A82U | 0.09
165 | A22G U38C U39C A96G U131C | 1.62
166 | A63G A89U U97C A117G | 1.84
167 | A24G A36G U39A G44A A117G A134G | 2.05
